Data on 45 compounds can be found in paper PMC4336329 (PLoS ONE, 2015).

The campaign covered roughly 310,000 compounds. About 2,200 (0.71%) showed an effect of 50% or more. Effects have a minus sign here. Some of the results follow.

The test deals with human ether-à-go-go-related gene (hERG) potassium channel (human, UniProt Q12809). Kind of test: primary screen, population patch clamp on CHO cells stably expressing hERG.
Chain of human ether-à-go-go-related gene (hERG) potassium channel (Q12809 whole entry, looked up): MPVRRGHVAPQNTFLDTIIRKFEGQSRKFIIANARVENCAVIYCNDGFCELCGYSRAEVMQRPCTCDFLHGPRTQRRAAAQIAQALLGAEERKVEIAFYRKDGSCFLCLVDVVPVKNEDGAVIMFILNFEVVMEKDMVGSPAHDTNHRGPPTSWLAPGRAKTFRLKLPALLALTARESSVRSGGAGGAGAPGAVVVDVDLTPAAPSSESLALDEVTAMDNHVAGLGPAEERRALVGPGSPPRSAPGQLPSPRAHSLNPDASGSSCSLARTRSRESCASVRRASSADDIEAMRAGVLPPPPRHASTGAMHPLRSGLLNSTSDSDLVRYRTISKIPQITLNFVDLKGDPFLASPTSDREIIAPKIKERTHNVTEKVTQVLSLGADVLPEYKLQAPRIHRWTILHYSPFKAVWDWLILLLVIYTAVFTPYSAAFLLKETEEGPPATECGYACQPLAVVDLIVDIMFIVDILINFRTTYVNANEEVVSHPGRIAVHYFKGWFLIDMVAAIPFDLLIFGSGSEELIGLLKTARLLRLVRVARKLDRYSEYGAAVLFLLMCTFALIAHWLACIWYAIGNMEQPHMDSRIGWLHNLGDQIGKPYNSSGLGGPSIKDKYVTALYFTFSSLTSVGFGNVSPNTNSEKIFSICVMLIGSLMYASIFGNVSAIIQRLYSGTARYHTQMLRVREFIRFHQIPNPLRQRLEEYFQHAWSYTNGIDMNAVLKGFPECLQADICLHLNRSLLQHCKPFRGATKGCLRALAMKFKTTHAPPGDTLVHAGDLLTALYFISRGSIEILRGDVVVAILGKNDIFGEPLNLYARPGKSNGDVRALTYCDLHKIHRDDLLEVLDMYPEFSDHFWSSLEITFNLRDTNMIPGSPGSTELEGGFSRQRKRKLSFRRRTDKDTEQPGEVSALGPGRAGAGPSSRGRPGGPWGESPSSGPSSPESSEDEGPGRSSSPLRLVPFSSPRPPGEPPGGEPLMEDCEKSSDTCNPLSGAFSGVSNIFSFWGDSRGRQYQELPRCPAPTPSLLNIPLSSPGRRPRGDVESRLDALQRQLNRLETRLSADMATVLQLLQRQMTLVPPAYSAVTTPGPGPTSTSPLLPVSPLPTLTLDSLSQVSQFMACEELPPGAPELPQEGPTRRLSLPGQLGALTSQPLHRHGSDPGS
Regarding `C=CCN(C(=O)c1csnn1)C(C(=O)NCc1ccccc1)c1c(F)cccc1Cl` (stereo not drawn), the “hERG current change (%, negative = inhibition) at 1uM” value is reported as 5.34%.
The value for `Cc1[nH]c(C)c(S(=O)(=O)NCc2ccco2)c1C(=O)N1CCCCC1` was 12.1%; that for `O=C(N/C(=C/c1cccnc1)C(=O)N1CCOCC1)c1ccccc1F` was 4.61%; that for `CCc1ccccc1NC1=NCC(=O)N1C1CCCCC1` was 5.94%.
Take `Cn1c(CSCC(=O)Nc2ccccc2)nnc1SCc1ccccc1`: the “hERG current change (%, negative = inhibition) at 1uM” value was found to be 3.05%.
Regarding `S=c1[nH]nc(-c2ccccc2Cl)n1Cc1ccccc1`, the “hERG current change (%, negative = inhibition) at 1uM” value came out at 7.49%.
The value for `COc1ccccc1CNC(=O)C(=O)NCC1OCCN1S(=O)(=O)c1ccccc1` (stereo not drawn) was 8.16%.
The value for `Cc1cc(C)c(S(=O)(=O)N2CCN(c3ccccc3)CC2)c(C)c1` was 15.7%; that for `Cc1cc([N+](=O)[O-])ccc1NC(=O)/C=C/c1cccs1` was -4.91%; that for `Cc1cc(C)n2nc(SCC(=O)N(C)c3ccccc3)nc2n1` was 12.3%.
Turning to `CN1C2C=C(N(CCc3ccccc3)C(=O)c3ccc(Cl)cc3)CC1CC2.Cl` (stereo not drawn), the “hERG current change (%, negative = inhibition) at 1uM” value is reported as -19.7%.
For `O=C(c1ccco1)N1CCN(S(=O)(=O)c2cccs2)CC1` the value was -13.6%.
Consider `CCOc1ccc(NC(=O)CN(C)C(=O)Cn2c(=O)cnc3ccccc32)cc1OCC`, for which the “hERG current change (%, negative = inhibition) at 1uM” value worked out at 21.7%.
For `COc1ccc(-n2nc(C(=O)NCC(=O)NC3CCCC(C)C3C)c3ccccc3c2=O)c(OC)c1` (stereo not drawn) the value was 12.5%; for `CCOC(=O)CSc1nc2ccccc2c(=O)n1CC(C)C`, 8.2%.
As to `Cc1ccnc(NC(=O)c2ccc(S(=O)(=O)N3CCCCCC3)cc2)c1`, the “hERG current change (%, negative = inhibition) at 1uM” value is 9.01%.
`COc1cccc(/C=N/NC(=O)C(=O)N2CCCCCC2)c1OC`: the “hERG current change (%, negative = inhibition) at 1uM” value is reported as 10.3%.
For `O=C(Nc1cccc(C(F)(F)F)c1)c1cc(-c2cccs2)on1` the value was 12.7%.
Consider `CCc1nc2ccccc2c(=O)n1NCCc1ccccc1`, for which the “hERG current change (%, negative = inhibition) at 1uM” value is 4.18%.
On to `CN(C)S(=O)(=O)c1ccccc1C#N`, for which the “hERG current change (%, negative = inhibition) at 1uM” value is given as -3.86%.
For `CCc1[nH]nc2c1C(c1cccnc1)C(C#N)=C(N)O2` (stereo not drawn) the value was 4.11%.
The value for `CCCCN(C(=O)c1ccc(N2CCCC2=O)cc1)c1c(N)n(CCC)c(=O)[nH]c1=O` was 12.2%; that for `CN(Cc1cccs1)C(=O)CCNS(=O)(=O)c1ccc(Br)cc1` was -4.09%.
Turning to `COc1ccc(NC(=O)CCCn2cnc3ccccc3c2=O)cc1`, the “hERG current change (%, negative = inhibition) at 1uM” value turned out to be 13.7%.
Consider `Cc1ccc(C(=O)O)cc1N1C(=O)c2cccc3cc(Br)cc(c23)C1=O`, for which the “hERG current change (%, negative = inhibition) at 1uM” value turned out to be 4.88%.
For `Cc1ccc(N=C(N)N=C(N)N)c(C)c1` the value was 11.2%; for `Cc1cccc2sc(N(CCCN(C)C)C(=O)c3nc4ccccc4s3)nc12.Cl`, 3.73%.
For `COc1ccc(/C=N/NC(=O)c2ccc(COc3cccc4cccnc34)cc2)cc1O` the value was 9.45%; for `COc1ccc(C(=O)N/C(=C/c2ccco2)C(=O)NC2CCS(=O)(=O)C2)cc1` (stereo not drawn), 16.6%; for `COC(=O)/C(=C1/Oc2ccc(C)cc2S1)C(F)(F)F`, 15.5%.
As for `O=C(NCCO)c1cccc2c1-c1ccccc1C2=O`, the “hERG current change (%, negative = inhibition) at 1uM” value is reported as 7.64%.
Consider `CC(=O)Nc1ccc(S(=O)(=O)N2CCC(N3CCCCCC3)CC2)cc1.O=C(O)C(=O)O`, for which the “hERG current change (%, negative = inhibition) at 1uM” value turned out to be 10.4%.
The value for `O=C(Cn1cc(C(=O)c2ccco2)c2ccccc21)Nc1ccccc1F` was 3.79%; that for `CCCCNCC(O)(c1ccc(Cl)cc1)c1ccc(Cl)cc1` was -5.39%.
The value for `Cc1nnc(N(C)C(=O)c2ccc3c(c2)OCO3)s1` was 15.4%; that for `O=C(Cc1cccs1)Nc1nc(-c2ccc(F)c(F)c2)cs1` was 20.8%.
The value for `COc1cc(C2N3CC4(C)CN2CC(C)(C3)C4)ccc1O` (stereo not drawn) was 2.15%; that for `CC(=O)Nc1ccc(S(=O)(=O)Nc2nc3ccc(C)cc3s2)cc1` was 8.08%.
With `CCc1nc2nc(C)c(NS(=O)(=O)c3ccc4c(c3)CCCC4)c(=O)n2[nH]1`, the “hERG current change (%, negative = inhibition) at 1uM” value stood at 13.1%.
Turning to `Cc1ccc2nc(-c3ccccn3)cc(C(=O)NCCc3ccc(F)cc3)c2c1`, the “hERG current change (%, negative = inhibition) at 1uM” value turned out to be 4.59%.
In the case of `Cc1nc2c(C)cccn2c(=O)c1NC(=O)c1ccc2c(c1)OCO2`, the “hERG current change (%, negative = inhibition) at 1uM” value is 11.6%.
The value for `Cc1ccc(S(=O)(=O)N(C)C)cc1NC(=O)CSc1ccc2c(c1)OCCO2` was 6.68%.
Turning to `COCCNC(=O)c1ccc(-n2c(SCc3cccnc3)nc3ccccc3c2=O)cc1`, the “hERG current change (%, negative = inhibition) at 1uM” value is given as -2.41%.
The value for `O=C(Nc1cccc(F)c1)NC1(C(=O)N2CCN3CCCC3C2)CCCCC1` (stereo not drawn) was 9.03%; that for `CCOc1ccc(OCCC(=O)N2CCN(S(=O)(=O)c3ccc(F)cc3)CC2)cc1` was -3.33%.
